From paper PMC4336329 (PLoS ONE, 2015)
Hit rate of the full screen: of about 310,000 compounds, about 14,000 (4.5%) showed an effect of 50% or more. Effects have a minus sign here. The list shows a part of the results.

Target: human ether-à-go-go-related gene (hERG) potassium channel (human, UniProt Q12809)
Test: primary screen, population patch clamp on CHO cells stably expressing hERG
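Further: peak tail current of the secondary pulse compared with the same well before compound.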

Sequence of human ether-à-go-go-related gene (hERG) potassium channel (Q12809 whole entry, looked up): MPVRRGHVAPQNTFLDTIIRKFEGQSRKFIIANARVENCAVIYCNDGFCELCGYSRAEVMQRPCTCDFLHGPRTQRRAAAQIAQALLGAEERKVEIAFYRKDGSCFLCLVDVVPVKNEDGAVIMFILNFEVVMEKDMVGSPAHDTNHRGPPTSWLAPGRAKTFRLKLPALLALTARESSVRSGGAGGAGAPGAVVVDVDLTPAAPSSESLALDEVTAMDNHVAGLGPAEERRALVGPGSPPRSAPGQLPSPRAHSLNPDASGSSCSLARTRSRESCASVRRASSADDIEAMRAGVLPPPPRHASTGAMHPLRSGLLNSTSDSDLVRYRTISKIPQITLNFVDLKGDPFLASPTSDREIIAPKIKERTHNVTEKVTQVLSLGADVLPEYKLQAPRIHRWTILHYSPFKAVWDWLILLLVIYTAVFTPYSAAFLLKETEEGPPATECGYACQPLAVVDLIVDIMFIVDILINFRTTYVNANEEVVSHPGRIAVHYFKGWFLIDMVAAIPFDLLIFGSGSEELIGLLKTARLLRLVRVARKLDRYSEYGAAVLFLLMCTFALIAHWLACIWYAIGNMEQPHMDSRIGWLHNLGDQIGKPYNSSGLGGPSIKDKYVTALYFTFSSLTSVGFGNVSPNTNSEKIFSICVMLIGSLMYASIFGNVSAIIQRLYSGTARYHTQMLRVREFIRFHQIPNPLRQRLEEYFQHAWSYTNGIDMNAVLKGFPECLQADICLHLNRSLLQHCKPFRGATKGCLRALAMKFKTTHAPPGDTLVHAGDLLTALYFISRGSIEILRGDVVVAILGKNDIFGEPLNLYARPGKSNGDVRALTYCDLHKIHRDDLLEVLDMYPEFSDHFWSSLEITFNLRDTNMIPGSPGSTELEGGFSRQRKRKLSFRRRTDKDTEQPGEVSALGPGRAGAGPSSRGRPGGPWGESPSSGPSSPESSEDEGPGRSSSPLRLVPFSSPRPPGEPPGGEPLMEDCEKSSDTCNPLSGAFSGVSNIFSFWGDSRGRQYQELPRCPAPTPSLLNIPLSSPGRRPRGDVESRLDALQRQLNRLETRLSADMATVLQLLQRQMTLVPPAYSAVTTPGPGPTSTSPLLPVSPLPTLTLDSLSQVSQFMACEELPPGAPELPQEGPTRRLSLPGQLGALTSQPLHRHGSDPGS

SMILES | hERG current change (%, negative = inhibition) at 10uM [%]
Cc1cccc(/C=N/n2c(COc3ccccc3)n[nH]c2=S)c1 | 14.8
O=C(CN1C(=O)S/C(=C\c2ccc(F)cc2)C1=O)Nc1cccc(S(=O)(=O)NCc2ccco2)c1 | -1.45
CCOc1ccccc1NC(=O)CCN(c1ccc(C)cc1)S(=O)(=O)c1ccccc1 | -10.9
Cc1cc2c(=O)n(Cc3ccco3)c(SCC(=O)c3ccc(Cl)s3)nc2s1 | -18.6
CCC(=O)Nc1ccc(S(=O)(=O)N2CCc3ccccc3C2)cc1 | -1.77
CCOc1ccc(N(CC(=O)NCc2ccco2)S(=O)(=O)c2ccc(OC)c(OC)c2)cc1 | 5.94
COC(=O)C1CC(=O)N(c2ccc(C)cc2)C1 (centres unmarked) | 1.44
O=P(O)(CCc1ccccc1)C(O)c1ccccc1 (centres unmarked) | 6.06
CCCOc1ccc(/C=c2\sc3nc(-c4ccco4)nn3c2=O)cc1OCC | 8.39
CCOc1ccc(N=C2NN=C(c3cc(C)n(CC4CCCO4)c3C)CS2)cc1 (centres unmarked) | 5.85
CN(Cc1ccc(-n2cccn2)cc1)Cc1cn(C)nc1-c1ccccc1F | -74.9
COc1ccc(/C=C/c2c([N+](=O)[O-])c(=O)n(C)c(=O)n2C)cc1OC | 0.272
CCOC(=O)C1CCN(C(=O)Cn2nc(C)n3c(cc4cc(C)ccc43)c2=O)CC1 | -35
Cc1ccc(S(=O)(=O)N(C)/N=C/c2ccc(N(C)C)cc2)cc1 | 9.16
CCOc1ccc(CCNC(=O)c2ccc(OCc3c(C)noc3C)cc2)cc1OCC | 11.8
O=C1N(CCCl)c2ccc(Br)cc2C12OCCO2 | 9.62
Cc1ccc(N2C(=O)CC(N3CCN(C4CCc5ccccc5C4)CC3)C2=O)cc1 (centres unmarked) | -75.1
CN(C)S(=O)(=O)c1ccc2c(c1)Cc1cc(S(=O)(=O)N(C)C)ccc1-2 | 20.1
CO[C@H]1O[C@@H]2O[C@@]3(C)CC[C@H]4[C@H](C)CC[C@@H]([C@H]1C)[C@@]24OO3 | 18.5

SMILES | hERG current change (%, negative = inhibition) at 10uM [%]
CCOc1ccc(C2C3=C(CC(C)(C)CC3=O)N(CC(=O)O)C3=C2C(=O)CC(C)(C)C3)cc1OCC | 5.47
CCN(Cc1ccccc1)S(=O)(=O)c1ccc(S(=O)(=O)N2CCN(C)CC2)cc1 | 14.4
COCCn1c(=NC(=O)CCS(=O)(=O)c2ccccc2)sc2ccccc21 | -8.2
O=C(Nc1nccs1)c1ccc(Br)s1 | 1.2
Cc1ccc(Cn2nnnc2CN2CCC(O)(c3ccccc3F)CC2)cc1 | -21.5
CC(C)CC1(C(=O)NCc2ccccn2)C=CCN1C(=O)c1ccccc1 (centres unmarked) | 10.6
Nc1nonc1NN=C1CCCCC1 | 18.6
CN(C)c1ccc(-c2nnn(CC(=O)Nc3ccc4c(c3)OCCO4)n2)cc1 | 53.4
Cc1nc2ccc(NS(=O)(=O)c3ccc(C)c(C)c3)cc2s1 | 8.06
CCCSc1nnc2n(-c3ccccc3OC)c(=O)c3c4c(sc3n12)CCC4 | -56.8
CCOC(=O)c1cccc(N2C(=O)C3C4C=CC(CC4)C3C2=O)c1 (centres unmarked) | 2.85
O=C(Nc1nnc(SCc2ccc(F)cc2)s1)c1ccco1 | 14.1
Cc1nn(C)c(Sc2ccccn2)c1[N+](=O)[O-] | 9.22
Cc1nc2c3ccccc3nc(NNC(=O)CCC(=O)N3CCN(c4ccc(F)cc4)CC3)n2n1 | -53.2
Cl.Clc1ccc2[nH]c3c(c2c1)CCNC3 | 5.7
CCOC(=O)C1=C(COC(=O)Cc2ccc(Br)cc2)NC(=O)NC1C (centres unmarked) | 1.41
CC(=O)NC(CC(=O)Nc1ccc(S(=O)(=O)N2CCCCC2)cc1)c1ccccc1 (centres unmarked) | -6.14
O=C(CSc1nnc(NC(=O)C2CC2)s1)NCc1ccc(F)cc1 | 33.3
COc1cccc(Cn2cc(-c3cccc(C(F)(F)F)c3)nn2)c1 | -0.656

SMILES | hERG current change (%, negative = inhibition) at 10uM [%]
COc1ccc(C2=NN(c3ccccc3)C(=O)/C2=C\c2ccc(O)c(OC)c2)cc1 | 14.2
CC(C)(C)c1ccc(/C=C(\C#N)C(=O)NC2CC2)cc1 | 12.3
C/C(=N/OCc1ccc(Br)cc1)c1ccccn1 | 6.29
CN1CCC(N(C)C(=O)NC2CCCCC2)CC1 | 14
CCCn1c(C)cc(C)c(C#N)c1=O | 15.7
O=c1[nH]c(CNCc2cccnc2)nc2ccccc12 | -3.54
COCCn1c(-c2ccccc2)cnc1SCC(=O)Nc1cccc2ccccc12 | -26.8
Cc1cc2c(ncn2C(C)C)c(NS(=O)(=O)c2ccc(F)cc2)c1C | -7.73
Cc1ccc(-c2noc(CCC(=O)Nc3ccccc3N3CCN(C)CC3)n2)cc1 | -33.7
COCCN(C(=O)COC(=O)C1(c2ccccc2)CC1)c1c(N)n(CC(C)C)c(=O)[nH]c1=O | -0.229
Cc1ccc(C(=O)NN2C(=O)/C(=C/c3cccn3C)SC2=S)cc1 | 1.21
N#CC1(C#N)C(c2ccccc2)OC23CCCCC2C1(C#N)C(=N)O3 (centres unmarked) | -7.43
Cc1cc(N2CCN(Cc3ccc4c(c3)OCO4)CC2)n2ncnc2n1 | 7.64
CCC(C)(C)c1nnc(NC(=O)C2CCN(C(=O)c3ccco3)CC2)s1 | 11.2
O=C([O-])/C=C1\CCCc2ccccc2C1O.[Na+] (centres unmarked) | 18.4
O=C(CSc1nccc(-c2cccs2)n1)Nc1ccc(F)c(Cl)c1 | -19.6
CCO[C@H]1OC(C(=O)NCc2ccccc2)=C[C@@H](C2CCCCC2)[C@@H]1CCCO | -19.8
COC(=O)c1sc(NC(=O)C2CCCCC2C(=O)O)c(C(=O)OC)c1C (centres unmarked) | 17.7
